# Experimental data taken from article PMC6919601, “Identification of Plasmodium dipeptidyl aminopeptidase allosteric inhibitors by high throughput screening” (PLoS ONE, 2019).
# Screen size: about 110,000 compounds; about 230 (0.21%) showed an effect of 50% or more. Some of the results follow.
# Target: DPAP1 (Plasmodium falciparum, UniProt Q8IIJ9)
# Test: primary screen, percent inhibition; read by cleavage of a fluorogenic dipeptide substrate; higher = more effect of the substance
# Parameters: species or system P. falciparum D10 trophozoite lysates; single well
# 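Note: 30 min substrate incubation versus DMSO and 10 µM JCP410 controls.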
# Chain of DPAP1 (Q8IIJ9 whole entry, looked up): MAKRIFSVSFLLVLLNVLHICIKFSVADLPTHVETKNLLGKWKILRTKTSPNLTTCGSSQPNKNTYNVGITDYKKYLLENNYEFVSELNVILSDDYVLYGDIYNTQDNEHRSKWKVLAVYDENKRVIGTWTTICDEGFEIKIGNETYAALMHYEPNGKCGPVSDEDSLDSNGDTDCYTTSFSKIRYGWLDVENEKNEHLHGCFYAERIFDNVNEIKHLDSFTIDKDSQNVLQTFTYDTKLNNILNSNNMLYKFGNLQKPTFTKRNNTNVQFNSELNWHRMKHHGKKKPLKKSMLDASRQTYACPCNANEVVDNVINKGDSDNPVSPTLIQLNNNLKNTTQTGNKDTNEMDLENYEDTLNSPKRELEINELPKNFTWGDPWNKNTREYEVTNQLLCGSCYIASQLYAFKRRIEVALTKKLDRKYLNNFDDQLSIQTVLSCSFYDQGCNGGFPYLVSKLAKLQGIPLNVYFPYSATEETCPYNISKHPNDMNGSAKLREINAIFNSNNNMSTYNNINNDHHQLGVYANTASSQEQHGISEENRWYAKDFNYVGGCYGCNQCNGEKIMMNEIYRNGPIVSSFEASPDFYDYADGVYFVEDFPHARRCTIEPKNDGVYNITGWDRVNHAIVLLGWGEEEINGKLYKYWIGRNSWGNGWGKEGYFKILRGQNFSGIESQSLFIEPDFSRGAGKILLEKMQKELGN
row,Structure (SMILES),% Inhibition @ 10 uM [%]
1,Cc1ccccc1-c1nn2c(C3COc4ccccc4O3)nnc2s1 (stereo not drawn),45
2,CC(=O)c1ccc(N2CCN(CC(C)CCC=C(C)C)CC2)cc1 (stereo not drawn),-0.132
3,CC1=C(C(=O)OCC2CCCCC2)C(c2ccc(C)cc2)NC(=O)N1 (stereo not drawn),15.8
4,CCOc1cc2c(cc1OCC)C(c1ccc(Cl)cc1)NCC2 (stereo not drawn),-8.41
5,O=C(Nc1ccc(Cl)cc1)Nc1ccc(S(=O)(=O)Nc2ccc(F)cc2)cc1,-10.8
6,Cc1cc2ccccc2n1CCNC(=O)c1ccc(S(=O)(=O)N2CCCCC2)cc1,-0.472
7,Cc1ccccc1N1CCN(Cc2c(C)[nH]c3ccccc23)CC1,-4.58
8,O=C(c1ccc2c(Cl)c3c(nc2c1)CCCC3)N1CCN(C(=O)c2ccco2)CC1,4.41
9,COc1ccc(NS(=O)(=O)c2cccc(C(=O)Nc3ccc(C)cc3)c2)cc1,4.82
10,CCOc1ccccc1CN1CCC2(C=Cc3ccccc32)CC1,1.74
11,CCCCCc1nnc(NC(=O)Nc2ccc([N+](=O)[O-])cc2)s1,-6.07
12,COc1ccc(CNC(=O)C2=Cc3sc(C)c(C)c3CS2)cc1,16.4
13,CCN(CC)S(=O)(=O)c1cccc(S(=O)(=O)c2ccc(Cl)cc2)c1,1.64
14,COc1cccc(C2C(C#N)=C(N)OC3=C2C(=O)CC(C)(C)C3)c1 (stereo not drawn),0.385
15,COc1cc(/C=C2\C(=O)ON=C2C)ccc1OCCc1ccccc1,-3.63
16,CC(=O)Nc1ccc(C(=O)CSc2nc3ccccc3s2)cc1,-0.25
17,COc1ccc(/C=C/C(=O)NC(=S)Nc2ccccc2O)cc1OC,2.35
18,COc1ccccc1CNC(=O)CN(c1ccc(Cl)c(Cl)c1)S(=O)(=O)c1ccccc1,0.323
19,CCOC(=O)N1CCN(C(=O)CCCn2nc(C)c3sc4ccccc4c3c2=O)CC1,0.236
20,Cc1nnc2sc(/C=C/c3ccccc3)nn12,-4.67
21,CC1=C(C#N)C(=O)N(C)C(=O)/C1=C/c1ccc(-c2cccc(Cl)c2C)o1,0.484
22,O=C(O)CC(NC(=O)c1ccccc1)c1ccccc1 (stereo not drawn),-5.86
23,C=CCOC(=O)C1=C(C)NC(=O)NC1c1cn(-c2ccccc2)nc1-c1ccc(OCC)cc1 (stereo not drawn),-1.93
24,CC(C)CCNC(=O)CCc1nnc2n(Cc3ccccc3Cl)c(=O)c3ccccc3n12,0.981
25,Cc1ccc(C(=O)Nc2ncn(Cc3ccccc3)n2)cc1,4.26
26,CC1(C)CC(=O)C2=C(C1)NC(=O)CC2c1ccccc1C(F)(F)F (stereo not drawn),-0.0508
27,COCCCNC(=O)Cc1ccc(-n2c(C)nc3cccnc32)cc1,1.98
